No constants are given. Whether binding was seen depends on the method and setting. For some of these results: Binding seen in cells or lysates may run through a third protein. Some binding calls cover weakened binding; strength is not graded here.
Tests used:
[1] = biological target: INTS3(1−500) (human) (UniProt Q68E01); test: SEC; analytical size-exclusion chromatography of co-expressed and purified INTS3-hSSB1 complexes (Supplementary Fig. S2); both purified
[2] = biological target: SFB-tagged full-length INTS3 F806A/E839A (human) (UniProt Q68E01); test: co-IP; HEK293T cells transfected with Myc-tagged and SFB-tagged full-length proteins; lysate with anti-Flag antibody and Protein A Sepharose 2 h at 4 °C, washed with NTEN buffer; blots with anti-Flag and anti-Myc
[3] = biological target: SFB-tagged full-length INTS3 V767A/D769A (human) (UniProt Q68E01); test: as above
[4] = biological target: SFB-tagged wild-type full-length INTS3 (human) (UniProt Q68E01); test: as above
[5] = biological target: full-length INTS6 F858A/K859A (human) (UniProt Q9UL03); test: as above
[6] = biological target: full-length wild-type INTS6 of the co-immunoprecipitation of Fig. 2e (human) (UniProt Q9UL03); test: as above
[7] = biological target: INTS3c, wild type, as used in the GST pull-down (human) (UniProt Q68E01); test: pull-down; GST pull-down of INTS3c and INTS6c, wild type or mutants, each mutant against its wild-type partner; which partner carried GST and the conditions are not told; both purified

By UniProt entry, the sequences of proteins in these tests, tags left out. Where a name states a change or a piece, a line headed by the entry shows the natural chain unless it says otherwise. Chains listed by the source or under a name are the forms on record and can include a tag or linker.
UniProt Q68E01: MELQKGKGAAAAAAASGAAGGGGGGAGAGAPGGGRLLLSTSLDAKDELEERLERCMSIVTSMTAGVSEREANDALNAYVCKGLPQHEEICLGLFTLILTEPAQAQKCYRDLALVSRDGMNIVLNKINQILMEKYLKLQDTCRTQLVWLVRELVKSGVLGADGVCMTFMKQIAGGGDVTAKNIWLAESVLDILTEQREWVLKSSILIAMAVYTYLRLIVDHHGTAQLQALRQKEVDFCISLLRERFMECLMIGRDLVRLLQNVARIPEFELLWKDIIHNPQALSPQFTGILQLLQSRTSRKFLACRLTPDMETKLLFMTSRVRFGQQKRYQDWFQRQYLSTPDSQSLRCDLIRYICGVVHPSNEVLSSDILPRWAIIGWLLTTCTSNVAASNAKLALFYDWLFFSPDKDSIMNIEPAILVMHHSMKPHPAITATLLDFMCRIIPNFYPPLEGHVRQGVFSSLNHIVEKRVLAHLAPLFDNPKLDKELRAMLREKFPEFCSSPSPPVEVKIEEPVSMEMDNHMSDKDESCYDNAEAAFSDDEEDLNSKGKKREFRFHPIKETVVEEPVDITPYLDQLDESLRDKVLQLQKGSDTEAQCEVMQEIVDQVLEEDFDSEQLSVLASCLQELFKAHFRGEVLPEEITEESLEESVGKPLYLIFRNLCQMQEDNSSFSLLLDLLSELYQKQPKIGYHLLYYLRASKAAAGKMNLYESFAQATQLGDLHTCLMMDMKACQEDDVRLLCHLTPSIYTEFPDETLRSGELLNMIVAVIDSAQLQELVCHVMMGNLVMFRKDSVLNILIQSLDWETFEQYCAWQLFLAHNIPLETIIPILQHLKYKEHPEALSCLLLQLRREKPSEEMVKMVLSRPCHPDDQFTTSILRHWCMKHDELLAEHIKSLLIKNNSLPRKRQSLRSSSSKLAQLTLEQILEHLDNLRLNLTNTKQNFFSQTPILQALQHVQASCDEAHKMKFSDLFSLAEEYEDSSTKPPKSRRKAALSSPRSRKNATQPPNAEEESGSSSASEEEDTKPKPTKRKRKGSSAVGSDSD
UniProt Q9UL03: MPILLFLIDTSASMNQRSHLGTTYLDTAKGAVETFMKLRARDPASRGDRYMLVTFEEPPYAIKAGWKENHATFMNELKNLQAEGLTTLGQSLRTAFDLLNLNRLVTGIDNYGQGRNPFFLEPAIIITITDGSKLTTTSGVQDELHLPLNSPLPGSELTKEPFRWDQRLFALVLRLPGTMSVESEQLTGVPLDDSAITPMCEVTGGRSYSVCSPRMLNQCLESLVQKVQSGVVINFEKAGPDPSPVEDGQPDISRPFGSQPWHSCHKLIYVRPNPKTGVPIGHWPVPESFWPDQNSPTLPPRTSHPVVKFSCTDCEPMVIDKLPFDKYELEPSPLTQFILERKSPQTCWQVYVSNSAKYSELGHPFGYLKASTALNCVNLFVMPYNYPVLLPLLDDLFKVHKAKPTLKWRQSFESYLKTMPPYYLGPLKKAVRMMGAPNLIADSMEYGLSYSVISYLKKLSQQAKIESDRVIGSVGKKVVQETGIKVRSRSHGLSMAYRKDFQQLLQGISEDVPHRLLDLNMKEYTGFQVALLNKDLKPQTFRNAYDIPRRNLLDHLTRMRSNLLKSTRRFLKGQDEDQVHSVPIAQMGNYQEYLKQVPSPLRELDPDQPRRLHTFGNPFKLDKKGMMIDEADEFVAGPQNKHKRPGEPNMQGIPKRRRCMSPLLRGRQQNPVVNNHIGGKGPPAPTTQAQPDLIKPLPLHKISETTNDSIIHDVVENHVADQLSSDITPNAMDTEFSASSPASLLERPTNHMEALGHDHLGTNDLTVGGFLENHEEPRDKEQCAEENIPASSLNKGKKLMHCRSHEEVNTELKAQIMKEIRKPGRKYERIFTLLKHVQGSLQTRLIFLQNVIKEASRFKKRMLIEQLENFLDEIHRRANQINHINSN
INTS6c F858A/K859A (Q9UL03, form named): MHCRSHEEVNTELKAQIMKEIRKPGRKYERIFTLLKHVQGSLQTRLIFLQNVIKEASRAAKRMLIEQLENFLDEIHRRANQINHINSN

INTS3(1−500) (from UniProt Q68E01 1-500) (domain or fragment)
binding [1]: no binding

Myc-tagged full-length INTS6 (from UniProt Q9UL03 1-887)
binding [2]: binds weakly | binding [3]: binds weakly | binding [4]: binds

full-length INTS3 of the co-immunoprecipitation of Fig. 2e (from UniProt Q68E01 1-1043)
binding [5]: binds weakly | binding [6]: binds

INTS6c F858A/K859A (from UniProt Q9UL03 800-887) (domain or fragment)
binding [7]: no binding
